Test results taken from the antibiotic and cytotoxicity screens of Wong et al. (2023).
The list shows a part of the results.

Columns and labels:
[1] = tested on: HSkMC (human skeletal muscle cells); assay: cytotoxicity call (relative viability < 0.9); conditions: 10 µM
[2] = tested on: HepG2; assay: cytotoxicity call (relative viability < 0.9); conditions: 10 µM
[3] = tested on: S. aureus RN4220; assay: growth inhibition call (relative growth <= 0.2); conditions: 50 µM

Row | SMILES | cytotoxicity call [1] | cytotoxicity call [2] | growth inhibition call [3]
1 | COc1ccccc1CNC(=O)C[C@@H]1C[C@H]2c3cc(NC(=O)c4cccnc4)ccc3O[C@H]2[C@@H](CO)O1 | inactive | inactive | inactive
2 | NC(CSSCC(N)C(=O)O)C(=O)O (stereo not drawn) | inactive | inactive | inactive
3 | CCC(=O)N(C)C[C@@H]1Oc2ncc(C#C[C@H](C)O)cc2C(=O)N([C@H](C)CO)C[C@H]1C | inactive | inactive | inactive
4 | COc1ccc(S(=O)(=O)N(C)C[C@@H]2Oc3ccc(NC(=O)CCC(F)(F)F)cc3CC(=O)N([C@H](C)CO)C[C@@H]2C)cc1 | inactive | inactive | inactive
5 | C[Se]CCC(N)C(=O)O (stereo not drawn) | inactive | inactive | inactive
6 | C[C@@H]1CN([C@H](C)CO)S(=O)(=O)c2ccc(C3=CCCC3)cc2O[C@@H]1CN(C)C(=O)C1CCOCC1 | inactive | inactive | inactive
7 | C[C@@H]1CN([C@@H](C)CO)C(=O)c2cccc(NC(=O)Nc3ccc(F)cc3)c2O[C@H]1CN(C)Cc1ccc(Cl)c(Cl)c1 | inactive | active | inactive
8 | CNC[C@H]1Oc2ccc(NS(=O)(=O)c3cn(C)cn3)cc2C(=O)N([C@@H](C)CO)C[C@H]1C | inactive | inactive | inactive
9 | CC(C)NC(=O)Nc1cccc2c1O[C@@H](CN(C)Cc1ccc3c(c1)OCO3)[C@H](C)CN([C@H](C)CO)C2=O | inactive | inactive | inactive
10 | C[C@H]1CN([C@@H](C)CO)C(=O)c2cc(NC(=O)Nc3ccccc3)ccc2O[C@@H]1CN(C)Cc1ccc(Oc2ccccc2)cc1 | inactive | active | inactive
11 | COc1ccc(NC(=O)N(C)C[C@@H]2OCCCC[C@@H](C)Oc3ccc(NS(=O)(=O)c4ccccc4)cc3C(=O)N([C@H](C)CO)C[C@@H]2C)cc1 | inactive | inactive | inactive
12 | C[C@@H]1CN([C@H](C)CO)C(=O)Cc2cc(NS(C)(=O)=O)ccc2O[C@H]1CN(C)Cc1ccc(C(F)(F)F)cc1 | inactive | inactive | inactive
13 | COc1ccc(S(=O)(=O)Nc2cccc3c2O[C@@H](CN(C)C(=O)NC(C)C)[C@H](C)CN([C@H](C)CO)C3=O)cc1 | inactive | inactive | inactive
14 | COc1ccc(NC(=O)N(C)C[C@H]2Oc3ccc(NC(=O)CCN4CCOCC4)cc3CC(=O)N([C@H](C)CO)C[C@H]2C)cc1 | inactive | inactive | inactive
15 | C[C@H](CO)N1C[C@H](C)[C@H](CN(C)S(=O)(=O)c2ccc(Cl)cc2)OCCCC[C@H](C)Oc2ccc(NC(=O)Nc3ccc(F)cc3)cc2C1=O | inactive | inactive | inactive
16 | CN1C(=O)c2cc(NC(=O)c3ccc(F)cc3)ccc2OC[C@@H]2O[C@@H](CC(=O)N3CCOCC3)CC[C@@H]21 | inactive | inactive | inactive
17 | CCn1cc(C(=O)O)c(=O)c2ccc(C)nc21 | inactive | inactive | inactive
18 | COc1ccc(cc1)CN1C[C@]2(CN(C2)S(=O)(=O)c2cn(cn2)C)c2c([nH]c3cc(ccc23)OC)[C@@H]1CO | inactive | inactive | inactive
19 | C[C@H](CO)N1C[C@H](C)[C@H](CN(C)C(=O)Nc2ccc(F)cc2)Oc2ccc(NC(=O)Nc3ccc(C(F)(F)F)cc3)cc2CC1=O | inactive | inactive | inactive
20 | CN1CCN(C(=O)C[C@H]2C=C[C@H](NC(=O)Cc3ccccn3)[C@@H](CO)O2)CC1 | inactive | inactive | inactive
21 | Cc1noc(C)c1NC(=O)N(C)C[C@H]1Oc2ccc(NC(=O)CCCN(C)C)cc2C(=O)N([C@H](C)CO)C[C@H]1C | inactive | inactive | inactive
22 | C[C@H](CO)N1C[C@H](C)[C@H](CN(C)Cc2ccncc2)Oc2ccc(NC(=O)Cn3cnnn3)cc2C1=O | inactive | inactive | inactive
23 | C[C@@H]1CN([C@H](C)CO)C(=O)c2cc(NS(=O)(=O)c3cccs3)ccc2O[C@@H]1CN(C)Cc1ccc(Oc2ccccc2)cc1 | inactive | active | inactive
24 | S=C(NCCCc1cnc[nH]1)NCCCN(Cc1ccc(Cl)c(Cl)c1)c1ccc(Br)cn1 | active | active | inactive
25 | CC(C)[C@@H](CO)N1C(=O)[C@]2(C)[C@H]3C(=O)OCCC/C=C\[C@H]3O[C@]23C=CCN(c2ccc(Cl)cc2)C(=O)[C@@H]13 | inactive | inactive | inactive
26 | C[C@@H]1CN([C@H](C)CO)S(=O)(=O)c2ccc(C#Cc3ccccc3F)cc2O[C@@H]1CN(C)C(=O)Cc1ccncc1 | inactive | inactive | inactive
